Most values come without repeats; read them as rough.
Assays:
CHO-K1 [1] = experiment: relative survival (nuclei to bead ratio vs DMSO control) (% of vehicle control); higher = more surviving cells
Experimental: (§1)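 Flow-cytometric in vitro micronucleus assay (Litron MicroFlow) in CHO-K1 cells in 96-well plates, 19 concentrations (4.5-200 µM, n=1 per concentration). Without S9, cells were exposed for 24 h and sampled at 48 h. With Aroclor 1254-induced rat liver S9, cells were exposed for 3-4 h and sampled at 27-28 h. Read-outs are %MN and %hypodiploid nuclei relative to nucleated events, and relative survival as the nuclei-to-bead ratio versus the 1% DMSO vehicle control (x100).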

CHO-K1 [2] = experiment: hypodiploid nuclei frequency (% of nucleated events); higher = more hypodiploid events (aneugenic)
Experimental: as §1

CHO-K1 [3] = experiment: micronucleus frequency (% of nucleated events); higher = more micronuclei (genotoxic)
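Throughout, for hypodiploid nuclei frequency (% of nucleated events): hypodiploid nuclei gated on a flow cytometer with 488 nm excitation after SYTOX Green staining, cultures at 37 °C, positive controls vinblastine without S9 and cyclophosphamide with S9.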
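Throughout, for micronucleus frequency (% of nucleated events): cells lysed with nuclei stained by SYTOX Green, then micronucleus-gated events counted against nucleated events by flow cytometry with 488 nm excitation.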
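Throughout, for relative survival (nuclei to bead ratio vs DMSO control): Lysed-cell nuclei stained with SYTOX Green and counted against counting beads by flow cytometry at 488 nm excitation, with vinblastine (no S9) and cyclophosphamide (plus S9) as positive controls.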

c1ccc2cc3c(ccc4ccccc43)cc2c1 [Benz(a)anthracene]
Conditions | hypodiploid nuclei frequency, CHO-K1 [2] [%] | micronucleus frequency, CHO-K1 [3] [%] | relative survival, CHO-K1 [1]
concentration: 4.5 (µM), S9 metabolic activation: with S9, exposure time: 3-4 hours | 0.18 | 1.62 | 130
concentration: 4.5 (µM), S9 metabolic activation: without S9, exposure time: 24 hours | 0.96 | 3.18 | 104
concentration: 5.63 (µM), S9 metabolic activation: with S9, exposure time: 3-4 hours | 0.22 | 1.36 | 117
concentration: 5.63 (µM), S9 metabolic activation: without S9, exposure time: 24 hours | 1.08 | 2.46 | 87.8
concentration: 7.04 (µM), S9 metabolic activation: with S9, exposure time: 3-4 hours | 0.26 | 1.68 | 113
concentration: 7.04 (µM), S9 metabolic activation: without S9, exposure time: 24 hours | 1.06 | 1.92 | 89.2
concentration: 8.8 (µM), S9 metabolic activation: with S9, exposure time: 3-4 hours | 0.34 | 1.78 | 114
concentration: 8.8 (µM), S9 metabolic activation: without S9, exposure time: 24 hours | 1.32 | 1.7 | 112
concentration: 11 (µM), S9 metabolic activation: with S9, exposure time: 3-4 hours | 0.14 | 1.76 | 113
concentration: 11 (µM), S9 metabolic activation: without S9, exposure time: 24 hours | 0.92 | 2.1 | 107
concentration: 13.7 (µM), S9 metabolic activation: with S9, exposure time: 3-4 hours | 0.3 | 2.66 | 103
concentration: 13.7 (µM), S9 metabolic activation: without S9, exposure time: 24 hours | 1.1 | 1.86 | 121
concentration: 17.2 (µM), S9 metabolic activation: with S9, exposure time: 3-4 hours | 0.4 | 3.06 | 86
concentration: 17.2 (µM), S9 metabolic activation: without S9, exposure time: 24 hours | 1.18 | 2.42 | 114
concentration: 21.5 (µM), S9 metabolic activation: with S9, exposure time: 3-4 hours | 0.38 | 3.96 | 55.6
concentration: 21.5 (µM), S9 metabolic activation: without S9, exposure time: 24 hours | 1.38 | 1.78 | 110
concentration: 26.8 (µM), S9 metabolic activation: with S9, exposure time: 3-4 hours | 0.5 | 4.22 | 64.6
concentration: 26.8 (µM), S9 metabolic activation: without S9, exposure time: 24 hours | 1.56 | 2.6 | 72.1
concentration: 33.6 (µM), S9 metabolic activation: with S9, exposure time: 3-4 hours | 0.43 | 3.83 | 46.6
concentration: 33.6 (µM), S9 metabolic activation: without S9, exposure time: 24 hours | 1.2 | 2.84 | 76.5
concentration: 41.9 (µM), S9 metabolic activation: with S9, exposure time: 3-4 hours | – | – | 39.4
concentration: 41.9 (µM), S9 metabolic activation: without S9, exposure time: 24 hours | 1.92 | 2.24 | 80.3
concentration: 52.4 (µM), S9 metabolic activation: with S9, exposure time: 3-4 hours | – | – | 36.8
concentration: 52.4 (µM), S9 metabolic activation: without S9, exposure time: 24 hours | 1.84 | 3.08 | 80.6
concentration: 65.5 (µM), S9 metabolic activation: with S9, exposure time: 3-4 hours | 0.51 | 3.23 | 45.2
concentration: 65.5 (µM), S9 metabolic activation: without S9, exposure time: 24 hours | 1.46 | 3.26 | 63.7
concentration: 81.9 (µM), S9 metabolic activation: with S9, exposure time: 3-4 hours | 0.51 | 3.58 | 45.5
concentration: 81.9 (µM), S9 metabolic activation: without S9, exposure time: 24 hours | 1.6 | 2.86 | 69
concentration: 102 (µM), S9 metabolic activation: with S9, exposure time: 3-4 hours | 0.35 | 2.49 | 48.3
concentration: 102 (µM), S9 metabolic activation: without S9, exposure time: 24 hours | 2.04 | 2.7 | 62.3
concentration: 128 (µM), S9 metabolic activation: with S9, exposure time: 3-4 hours | – | – | 39.4
concentration: 128 (µM), S9 metabolic activation: without S9, exposure time: 24 hours | 2.1 | 3.46 | 52.2
concentration: 160 (µM), S9 metabolic activation: with S9, exposure time: 3-4 hours | 0.77 | 3.41 | 45.5
concentration: 160 (µM), S9 metabolic activation: without S9, exposure time: 24 hours | 2.98 | 3 | 44.9
concentration: 200 (µM), S9 metabolic activation: with S9, exposure time: 3-4 hours | – | – | 37.8
concentration: 200 (µM), S9 metabolic activation: without S9, exposure time: 24 hours | – | – | 37.8

C[C@]12CCC(=O)C=C1CC[C@@H]1[C@@H]2CC[C@]2(C)C(=O)CC[C@@H]12 [4-Androstene-3,17-dione]
Conditions | hypodiploid nuclei frequency, CHO-K1 [2] [%] | micronucleus frequency, CHO-K1 [3] [%] | relative survival, CHO-K1 [1]
concentration: 4.5 (µM), S9 metabolic activation: with S9, exposure time: 3-4 hours | 0.3 | 2.3 | 82.1
concentration: 4.5 (µM), S9 metabolic activation: without S9, exposure time: 24 hours | 1.06 | 1.96 | 89.4
concentration: 5.63 (µM), S9 metabolic activation: with S9, exposure time: 3-4 hours | 0.42 | 1.51 | 61
concentration: 5.63 (µM), S9 metabolic activation: without S9, exposure time: 24 hours | 0.94 | 2 | 95.7
concentration: 7.04 (µM), S9 metabolic activation: with S9, exposure time: 3-4 hours | 0.42 | 2.08 | 84.7
concentration: 7.04 (µM), S9 metabolic activation: without S9, exposure time: 24 hours | 1.1 | 2.34 | 98.5
concentration: 8.8 (µM), S9 metabolic activation: with S9, exposure time: 3-4 hours | 0.22 | 1.72 | 71.1
concentration: 8.8 (µM), S9 metabolic activation: without S9, exposure time: 24 hours | 1.02 | 1.38 | 104
concentration: 11 (µM), S9 metabolic activation: with S9, exposure time: 3-4 hours | 0.46 | 1.54 | 81.7
concentration: 11 (µM), S9 metabolic activation: without S9, exposure time: 24 hours | 0.96 | 1.26 | 85.2
concentration: 13.7 (µM), S9 metabolic activation: with S9, exposure time: 3-4 hours | 0.46 | 1.78 | 63.9
concentration: 13.7 (µM), S9 metabolic activation: without S9, exposure time: 24 hours | 1.06 | 1.58 | 94.8
concentration: 17.2 (µM), S9 metabolic activation: with S9, exposure time: 3-4 hours | 0.26 | 1.88 | 72.9
concentration: 17.2 (µM), S9 metabolic activation: without S9, exposure time: 24 hours | 1.34 | 2.3 | 117
concentration: 21.5 (µM), S9 metabolic activation: with S9, exposure time: 3-4 hours | 0.36 | 1.56 | 106
concentration: 21.5 (µM), S9 metabolic activation: without S9, exposure time: 24 hours | 1.12 | 2.14 | 92.6
concentration: 26.8 (µM), S9 metabolic activation: with S9, exposure time: 3-4 hours | 0.38 | 2.34 | 76.8
concentration: 26.8 (µM), S9 metabolic activation: without S9, exposure time: 24 hours | 1.66 | 1.58 | 70.2
concentration: 33.6 (µM), S9 metabolic activation: with S9, exposure time: 3-4 hours | 0.3 | 1.34 | 65.6
concentration: 33.6 (µM), S9 metabolic activation: without S9, exposure time: 24 hours | 1.72 | 1.88 | 75.4
concentration: 41.9 (µM), S9 metabolic activation: with S9, exposure time: 3-4 hours | 0.3 | 2.52 | 76.8
concentration: 41.9 (µM), S9 metabolic activation: without S9, exposure time: 24 hours | 1.5 | 1.92 | 75.1
concentration: 52.4 (µM), S9 metabolic activation: with S9, exposure time: 3-4 hours | 0.44 | 1.92 | 63.6
concentration: 52.4 (µM), S9 metabolic activation: without S9, exposure time: 24 hours | 1.5 | 1.7 | 79.5
concentration: 65.5 (µM), S9 metabolic activation: with S9, exposure time: 3-4 hours | 0.7 | 1.54 | 79.8
concentration: 65.5 (µM), S9 metabolic activation: without S9, exposure time: 24 hours | 1.96 | 1.94 | 64
concentration: 81.9 (µM), S9 metabolic activation: with S9, exposure time: 3-4 hours | 0.5 | 2.52 | 60.5
concentration: 81.9 (µM), S9 metabolic activation: without S9, exposure time: 24 hours | 2.02 | 1.92 | 62.4
concentration: 102 (µM), S9 metabolic activation: with S9, exposure time: 3-4 hours | 0.6 | 1.82 | 65.3
concentration: 102 (µM), S9 metabolic activation: without S9, exposure time: 24 hours | 2.04 | 2.06 | 66.3
concentration: 128 (µM), S9 metabolic activation: with S9, exposure time: 3-4 hours | 0.58 | 2.08 | 72.1
concentration: 128 (µM), S9 metabolic activation: without S9, exposure time: 24 hours | 2.1 | 2.42 | 57.5
concentration: 160 (µM), S9 metabolic activation: with S9, exposure time: 3-4 hours | 0.16 | 1.88 | 79
concentration: 160 (µM), S9 metabolic activation: without S9, exposure time: 24 hours | 1.54 | 1.24 | 49.8
concentration: 200 (µM), S9 metabolic activation: with S9, exposure time: 3-4 hours | 0.48 | 2.35 | 59.7
concentration: 200 (µM), S9 metabolic activation: without S9, exposure time: 24 hours | 1.72 | 1.98 | 41.9

Reference: the supplement of paper PMC9151546
